Measurements taken from the supplement of paper PMC10886265.

What was measured:
Test in all cases: Broth microdilution (CLSI), cation-adjusted Mueller-Hinton broth, two-fold steps from 0.25 to 128 µg/mL, 18 h at 37 °C.
Imipenem = compound: C[C@@H](O)[C@H]1C(=O)N2C(C(=O)O)=C(SCCNC=N)C[C@H]12 [Imipenem]
Meropenem = compound: C[C@@H](O)[C@H]1C(=O)N2C(C(=O)O)=C(S[C@@H]3CN[C@H](C(=O)N(C)C)C3)[C@H](C)[C@H]12 [Meropenem]
Ertapenem = compound: C[C@@H](O)[C@H]1C(=O)N2C(C(=O)O)=C(S[C@@H]3CN[C@H](C(=O)Nc4cccc(C(=O)O)c4)C3)[C@H](C)[C@H]12 [Ertapenem]

Test System	MIC (Imipenem) [µg/mL]	MIC (Meropenem) [µg/mL]	MIC (Ertapenem) [µg/mL]
Klebsiella pneumoniae isolate primary sludge #224 (carbapenemase genes (PCR): KPC)	64	128	32
Klebsiella pneumoniae isolate primary sludge #231 (carbapenemase genes (PCR): KPC)	16	64	32
Klebsiella pneumoniae isolate primary sludge #249 (carbapenemase genes (PCR): KPC)	64	> 128	32
Klebsiella pneumoniae isolate primary sludge #251 (carbapenemase genes (PCR): KPC)	64	64	32
Klebsiella pneumoniae isolate primary sludge #252 (carbapenemase genes (PCR): OXA-48)	8	16	8
Klebsiella pneumoniae isolate primary sludge #257 (carbapenemase genes (PCR): KPC)	32	64	8
Klebsiella pneumoniae isolate secondary sludge #4 (carbapenemase genes (PCR): OXA-48)	128	128	64
Klebsiella pneumoniae isolate secondary sludge #82 (carbapenemase genes (PCR): KPC+GES)	64	128	32
Klebsiella pneumoniae isolate secondary sludge #84 (carbapenemase genes (PCR): OXA-48+KPC)	64	128	32
Klebsiella pneumoniae isolate secondary sludge #87 (carbapenemase genes (PCR): KPC)	64	128	32
Klebsiella pneumoniae isolate secondary sludge #173 (carbapenemase genes (PCR): KPC)	16	64	8
Klebsiella pneumoniae isolate secondary sludge #176 (carbapenemase genes (PCR): KPC)	16	32	8
Klebsiella pneumoniae isolate secondary sludge #178 (carbapenemase genes (PCR): KPC)	16	32	8
Klebsiella pneumoniae isolate secondary sludge #179 (carbapenemase genes (PCR): KPC)	16	32	8
Klebsiella pneumoniae isolate secondary sludge #180 (carbapenemase genes (PCR): KPC)	32	64	8
Klebsiella pneumoniae isolate secondary sludge #181 (carbapenemase genes (PCR): KPC)	32	64	8
Klebsiella pneumoniae isolate secondary sludge #182 (carbapenemase genes (PCR): KPC)	32	64	8
Klebsiella pneumoniae isolate secondary sludge #183 (carbapenemase genes (PCR): KPC)	32	64	8
Klebsiella pneumoniae isolate secondary sludge #185 (carbapenemase genes (PCR): KPC)	16	32	8
Klebsiella pneumoniae isolate secondary sludge #191 (carbapenemase genes (PCR): KPC)	32	64	8

MIC by broth microdilution (CLSI, 0.25-128 µg/mL, 18 h, 37 °C) of Gram-negative wastewater isolates picked on carbapenem-selective plates; higher = less susceptible. No active / inactive call. Isolates were selected for resistance.
